# Measurements as given in the BET-seq Pho4 binding data (Le et al. 2018).
# The list shows a part of the results. The energies were worked out here from pooled read counts, against the library average; single values are noisy.
# Biological target: T1, Pho4 (S. cerevisiae) (UniProt P07270)
# T1 sequence: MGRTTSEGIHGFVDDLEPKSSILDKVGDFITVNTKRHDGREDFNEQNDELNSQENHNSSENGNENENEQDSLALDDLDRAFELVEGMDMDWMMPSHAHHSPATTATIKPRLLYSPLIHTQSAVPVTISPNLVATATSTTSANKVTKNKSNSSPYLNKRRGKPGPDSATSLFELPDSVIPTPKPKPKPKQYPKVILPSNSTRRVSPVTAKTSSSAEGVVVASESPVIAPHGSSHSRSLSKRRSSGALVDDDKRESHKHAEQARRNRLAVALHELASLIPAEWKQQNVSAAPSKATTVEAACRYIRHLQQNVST
# Assay: relative binding free energy (BET-seq); higher = weaker binding
# Conditions: reference: library average
row,Sequence,relative binding free energy [kcal/mol]
1,GTCATCACGTGGTCGT,0.09
2,TTAGTCACGTGTTTTC,0.18
3,TGTGTCACGTGGCCAT,-0.07
4,CAGTACACGTGGTATG,-0.04
5,ATTGACACGTGGTCTT,-0.17
6,AAATTCACGTGGGCGG,0.21
7,AAGGACACGTGAGGAG,0.42
8,GGGTCCACGTGTAGGG,0.16
9,GGCGACACGTGTATGG,0.07
10,TGGAACACGTGTTTAT,0.06
11,CTTTGCACGTGGCGGA,-0.08
12,TAAAGCACGTGTGAGT,-0.18
13,GGGGGCACGTGTTAGT,0.02
14,TGGGGCACGTGATACG,-0.12
15,AGTGACACGTGTTTTA,0.05
16,AGTGTCACGTGGACAG,-0.04
17,TTTTCCACGTGTTTCG,0.08
18,TGCAACACGTGGGAAG,-0.01
19,GCGTTCACGTGCGTGG,0.2
20,TAGTCCACGTGGTTTT,0
21,CATGGCACGTGTAGCG,0.02
22,TCTTGCACGTGGGGGC,-0.19
23,TAGTACACGTGGACGT,0.14
24,GTTCGCACGTGGTTGA,0.02
25,GTACGCACGTGGGGCT,-0.16

row,Sequence,relative binding free energy [kcal/mol]
1,GGCTGCACGTGGGTTG,-0.04
2,CTGTGCACGTGGGGGC,-0.14
3,TATAACACGTGTCTTG,0.14
4,AGTTTCACGTGGTCTA,0.08
5,TGTGCCACGTGTTTTG,-0.01
6,AGTTTCACGTGATTTA,0.29
7,TGTGACACGTGCAGGT,-0.13
8,GGCAGCACGTGGATGG,-0.04
9,TGGACCACGTGGTGGT,-0.12
10,GTGTACACGTGCTGGG,0.09
11,TAAGACACGTGGGTAT,-0.13
12,AAAGTCACGTGAGGGA,0.3
13,TGGGGCACGTGGCGTT,-0.24
14,TTAGACACGTGTAGGT,0.07
15,AGTGCCACGTGTTGGT,-0.07
16,ATATGCACGTGCGTTT,-0.14
17,AGTTCCACGTGGTGGA,-0.01
18,TGGTACACGTGCGTTA,-0.1
19,TCATTCACGTGATATT,0.32
20,TTTTGCACGTGCGGTC,0.09
21,GTTGTCACGTGTGTTC,0.21
22,TGTTTCACGTGCCGTA,0.22
23,TGTGTCACGTGTGTCG,0.21
24,ATTAGCACGTGTCTGT,-0.07
25,ATGATCACGTGGAAGT,0.13

row,Sequence,relative binding free energy [kcal/mol]
1,GTCGACACGTGGGTGG,-0.09
2,GGGCGCACGTGTGCGA,-0.07
3,AAATCCACGTGGTGGT,0
4,GGTTGCACGTGCTGGT,-0.01
5,GAGACCACGTGGGGGA,-0.12
6,CTTGTCACGTGTCTTA,0.13
7,GTGTGCACGTGGACGC,0
8,GTTGGCACGTGATGGC,0.09
9,TTTTTCACGTGGACTG,0.23
10,GTGTCCACGTGGGATA,-0.04
11,AAGTACACGTGGGTAA,-0.03
12,CGGTACACGTGATTTG,0.2
13,GAGGACACGTGGTAGG,0.09
14,GTTTCCACGTGGTATT,0.01
15,CTTGTCACGTGAGAGA,0.37
16,ATTAACACGTGTTTCT,-0.04
17,GATTTCACGTGTGTCT,0.33
18,AAGATCACGTGGGTGC,0.09
19,GTCGTCACGTGGTGAA,0.01
20,ATGGTCACGTGCGAGA,0.07
21,GATGACACGTGTTTAG,0.16
22,AGCTTCACGTGAAGGT,0.28
23,TTTGACACGTGAGGTC,0.11
24,AGAAGCACGTGGGGGA,-0.14
25,GTGTGCACGTGAGTAG,0.28

row,Sequence,relative binding free energy [kcal/mol]
1,GGTTGCACGTGTAGCT,0.12
2,TGTCTCACGTGGAGTA,0.25
3,ACGTTCACGTGGTGGG,0.29
4,TTAGACACGTGGAGCG,0.02
5,GGTTTCACGTGGGGGA,0.28
6,GAGTCCACGTGTTGGG,0.08
7,TCAATCACGTGGTGGA,0.16
8,ATGTGCACGTGCGGGC,-0.03
9,AGATACACGTGTAGTT,0.11
10,TTTAGCACGTGGGAGC,-0.19
11,TAAGTCACGTGTTGGT,0.19
12,AATTACACGTGGTAGG,0.09
13,AGGTACACGTGGGTTG,-0.12
14,GTCGTCACGTGTTAGG,0.21
15,CTAGTCACGTGGTTAT,-0.07
16,GCTGTCACGTGTTGAT,0.12
17,TGGCTCACGTGATTGA,0.34
18,TGTGCCACGTGTGCTG,-0.07
19,TCTTTCACGTGGGAGA,0.32
20,AGCGTCACGTGTGGAA,0.16
21,TAGTTCACGTGTTCAG,0.21
22,GTGAGCACGTGAGGTG,0.18
23,TGTGGCACGTGTTTTC,0.07
24,ATTATCACGTGGGGGC,0.04
25,GAAGTCACGTGGTTGA,0.06

row,Sequence,relative binding free energy [kcal/mol]
1,TTGGTCACGTGAGGAA,0.24
2,GTGTTCACGTGTCGCG,0.12
3,TTTCGCACGTGTAGGC,0.1
4,TTCGGCACGTGACATG,0.07
5,GTCGTCACGTGTGGAT,0.2
6,TTACCCACGTGGTGTG,-0.08
7,AGGTGCACGTGCGCGG,-0.23
8,AGGAGCACGTGGGCAA,-0.14
9,AGGAACACGTGGGGGC,-0.03
10,GGATACACGTGGTGAA,0.02
11,TGTTTCACGTGGTTTG,0.33
12,GTTATCACGTGGATCG,0.24
13,TAAATCACGTGGCTTG,-0.02
14,TCTAGCACGTGGGCTG,-0.22
15,GGTGGCACGTGGGAGA,-0.07
16,GGACTCACGTGTGGGT,0.14
17,TGTCTCACGTGAGCGT,0.23
18,TGCGTCACGTGTGTTG,-0.1
19,TATAGCACGTGGGGCA,-0.17
20,TTGGGCACGTGTGTAG,0.01
21,ATTTACACGTGCGGTG,0.16
22,TTGATCACGTGTTTCA,0.06
23,AGGGTCACGTGCTGTC,0.05
24,TTATGCACGTGCCGGG,-0.2
25,CATGACACGTGGTTGG,0.09

row,Sequence,relative binding free energy [kcal/mol]
1,ATTTACACGTGAATGT,0.37
2,TTCTTCACGTGTTTGC,0.31
3,AGTGCCACGTGGTTGA,-0.26
4,TTTAACACGTGTGTGG,-0.07
5,TAGTCCACGTGTGTAA,0.17
6,GGAGTCACGTGGTAAT,0.16
7,TAGGCCACGTGGGCAG,-0.18
8,ACTGGCACGTGCAGGG,-0.04
9,TTAATCACGTGGTAGG,0.2
10,GGGTGCACGTGTCGCG,0.1
11,TTCTGCACGTGTGTAG,-0.08
12,TTATTCACGTGGGCTT,0.19
13,CAATTCACGTGTTAGT,0.33
14,GGATTCACGTGTCTTT,0.24
15,GGGTACACGTGTGAAG,0.19
16,AGGTACACGTGCAGGT,-0.02
17,CGTAGCACGTGGGGTG,-0.36
18,ATCGGCACGTGGGCGG,-0.12
19,CGGGGCACGTGATGCT,-0.03
20,CTTTACACGTGTAAGT,0.14
21,TGTCGCACGTGGTAAT,-0.09
